Reference: PubChem BioAssay (Tox21)
Several values for one entry are separate records, joined by “and”; a condition that tells them apart may be missing. Equal entries are not always repeated. The inconclusive results got no clear call from the source; some entries with a clear call stand among them for comparison. Potencies of inconclusive entries are doubtful fits and often do not repeat. Some structures have more than one record in an assay (separate samples or runs), and their calls can disagree. Activity calls are given as the source filed them. The call rests on the fitted dose curve; in most records, active means well fitted curve in the direction sought with a large enough effect in the repeat runs; inconclusive means weak or mixed curves; inactive means no such curve, though single readings can be large; an effect the other way counts as inactive or inconclusive.

Experiment: qHTS RealTime-Glo MT Cell Viability Assay in HepG2 cells - 32 hour (AID 1224877); further: nearly all actives have a fitted effect of over 55% in size
Settings: RealTime-Glo luminescence; series mostly up to 76.8 µM
Method in brief: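 qHTS, HepG2, 600 cells/well, RealTime-Glo (NanoLuc + prosubstrate) added with cells; 5 h preincubation; DMSO compound addition; 37 C; luminescence at 0/8/16/24/32/40 h.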
Potency means the concentration at half of the fitted maximal effect; tags describe the fitted curve by direction and shape.

Q: Which Potency does the source give for `Clc1ccc(C(Cl)(Cl)Cl)cc1Cl` here?
A: inconclusive: 53.8 µM [cytotoxic, single point]

Q: For `[Cd+2].[Cl-].[Cl-]`, which Potency is on record?
A: inconclusive: 55.4 µM [cytotoxic, single point] and inconclusive: 49 µM [cytotoxic, partial curve, poor fit]

Q: With `CC(C)OC(=O)C(O)(c1ccc(Cl)cc1)c1ccc(Cl)cc1` as the compound, how does the Potency read?
A: inconclusive: 49 µM [cytotoxic, partial curve, poor fit]

Q: Which Potency does the source give for `CC(O)C(=O)[O][Hg][c]1ccccc1` (centres undefined) here?
A: active: 2.75 µM

Q: Which Potency does the source give for `ClC1=C(Cl)[C@]2(Cl)[C@@H]3[C@@H](Cl)[C@H]4O[C@H]4[C@@H]3C1(Cl)C2(Cl)Cl` here?
A: inconclusive: 54.9 µM [cytotoxic, single point]

Q: With `CN(C)c1ccc(N=O)cc1` as the compound, how does the Potency read?
A: inconclusive: 55.1 µM [cytotoxic, single point] and active: 34.7 µM

Q: For `Clc1ccc(C(c2ccc(Cl)cc2)C(Cl)Cl)cc1`, which Potency is on record?
A: inconclusive: 54.9 µM [cytotoxic, single point]

Q: With `CCC(C)(C)c1ccc(O)c(C(C)(C)CC)c1` as the compound, how does the Potency read?
A: inconclusive: 54.9 µM [cytotoxic, single point]

Q: For `CCCCCCCC[N+](C)(CCCCCCCC)CCCCCCCC`, which Potency is on record?
A: active: 9.75 µM and active: 19.5 µM and active: 8.71 µM

Q: With `[F][Sn]([c]1ccccc1)([c]1ccccc1)[c]1ccccc1` as the compound, how does the Potency read?
A: active: 0.347 µM

Q: For `CCN(CC)C(=S)S`, which Potency is on record?
A: active: 21.9 µM

Q: With `CC(=O)[O][Sn]([c]1ccccc1)([c]1ccccc1)[c]1ccccc1` as the compound, how does the Potency read?
A: inconclusive: 0.0871 µM [cytotoxic, full curve, poor fit]

Q: With `O=CC(Br)(Br)Br` as the compound, how does the Potency read?
A: active: 43.5 µM

Q: With `S=C=NCCc1ccccc1` as the compound, how does the Potency read?
A: inconclusive: 61.8 µM [cytotoxic, single point]

Q: For `CCCCCCCCCCCCn1cc[n+](C)c1`, which Potency is on record?
A: inconclusive: 62.2 µM [cytotoxic, partial curve, poor fit]

Q: For `O=S1OC[C@@H]2[C@H](CO1)[C@]1(Cl)C(Cl)=C(Cl)[C@@]2(Cl)C1(Cl)Cl` (some centres undefined), which Potency is on record?
A: inconclusive: 61.6 µM [cytotoxic, partial curve, poor fit]

Experiment: A CellTox Green Cytotoxicity Assay to monitor cytotoxicity in HepG2 cells - 24 hour (AID 1224878); further: nearly all actives have a fitted effect of over 45% in size
Settings: CellTox Green fluorescence; series mostly up to 76.8 µM
Method in brief: (§1)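 Cells and non-lytic dye reagent are dispensed together (600 HepG2 cells/well) and incubated 5 h before DMSO compound transfer. Kinetic fluorescence is then recorded in the same wells during 40 h at 37 C.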

Q: For `Clc1ccc(C(Cl)(Cl)Cl)cc1Cl`, which Potency is on record?
A: active: 47.9 µM

Q: For `Oc1ccc(Cl)cc1Cc1ccccc1`, which Potency is on record?
A: inconclusive: 23.9 µM [activator, partial curve]

Q: For `[Cd+2].[Cl-].[Cl-]`, which Potency is on record?
A: active: 22.1 µM and active: 38.9 µM

Q: With `Nc1ccc([N+](=O)[O-])cc1` as the compound, how does the Potency read?
A: active: 43.6 µM

Q: Which Potency does the source give for `CN(C)c1ccc(N=O)cc1` here?
A: inconclusive: 30.9 µM [activator, single point]

Q: Which Potency does the source give for `Clc1ccc(C(c2ccc(Cl)cc2)C(Cl)Cl)cc1` here?
A: inactive and inconclusive: 54.9 µM [activator, single point]

Q: For `CCC(C)(C)c1ccc(O)c(C(C)(C)CC)c1`, which Potency is on record?
A: active: 34.3 µM and inconclusive: 61.6 µM [activator, single point]

Q: Which Potency does the source give for `ClC1=C(Cl)[C@]2(Cl)[C@@H]3[C@@H]4C[C@@H]([C@H]5O[C@@H]45)[C@@H]3[C@@]1(Cl)C2(Cl)Cl` here?
A: active: 49 µM

Q: For `C=CCC1=C(C)C(OC(=O)C2C(C=C(C)C)C2(C)C)CC1=O` (centres undefined), which Potency is on record?
A: inconclusive: 65.4 µM [activator, partial curve, poor fit]

Q: For `CC(=O)[O][Sn]([c]1ccccc1)([c]1ccccc1)[c]1ccccc1`, which Potency is on record?
A: inconclusive: 0.0776 µM [activator, full curve, poor fit]

Q: For `O=[N+]([O-])/C=C/c1ccccc1`, which Potency is on record?
A: inconclusive: 24.5 µM [activator, single point]

Q: With `S=C=NCCc1ccccc1` as the compound, how does the Potency read?
A: inconclusive: 55.1 µM [activator, single point]

Q: For `CCC[CH2][Sn]([Cl])([CH2]CCC)[CH2]CCC`, which Potency is on record?
A: active: 1.38 µM and active: 2.19 µM

Q: For `O=S1OC[C@@H]2[C@H](CO1)[C@]1(Cl)C(Cl)=C(Cl)[C@@]2(Cl)C1(Cl)Cl` (some centres undefined), which Potency is on record?
A: inconclusive: 54.9 µM [activator, single point]

Experiment: A CellTox Green Cytotoxicity Assay to monitor cytotoxicity in HepG2 cells - 40 hour (AID 1224879); further: nearly all actives have a fitted effect of over 40% in size
Settings: CellTox Green fluorescence; series mostly up to 76.8 µM
Method in brief: as §1

Q: For `Oc1ccc(Cl)cc1Cc1ccccc1`, which Potency is on record?
A: inconclusive: 26.8 µM [activator, single point]

Q: Which Potency does the source give for `O=C1c2ccccc2C(=O)C1C(=O)C(c1ccccc1)c1ccc(Cl)cc1` (centres undefined) here?
A: inconclusive: 54.9 µM [activator, single point]

Q: Which Potency does the source give for `ClC1=C(Cl)[C@]2(Cl)[C@@H]3[C@@H](Cl)[C@H]4O[C@H]4[C@@H]3C1(Cl)C2(Cl)Cl` here?
A: inconclusive: 54.9 µM [activator, single point]

Q: With `Clc1ccc(C(c2ccc(Cl)cc2)C(Cl)Cl)cc1` as the compound, how does the Potency read?
A: inconclusive: 54.9 µM [activator, single point]

Q: Which Potency does the source give for `O=C(CCl)c1ccc(Cl)cc1Cl` here?
A: inconclusive: 27.4 µM [activator, partial curve]

Q: Which Potency does the source give for `CCC(C)(C)c1ccc(O)c(C(C)(C)CC)c1` here?
A: inconclusive: 61.6 µM [activator, single point]

Q: Which Potency does the source give for `ClC1C(Cl)C(Cl)C(Cl)C(Cl)C1Cl` (centres undefined) here?
A: inconclusive: 54.9 µM [activator, single point] [middle of 4 runs]

Q: For `C=CCC1=C(C)C(OC(=O)C2C(C=C(C)C)C2(C)C)CC1=O` (centres undefined), which Potency is on record?
A: inconclusive: 49 µM [activator, partial curve, poor fit]

Q: With `CC(=O)[O][Sn]([c]1ccccc1)([c]1ccccc1)[c]1ccccc1` as the compound, how does the Potency read?
A: inconclusive: 0.0309 µM [activator, full curve, poor fit]

Q: For `O=[N+]([O-])/C=C/c1ccccc1`, which Potency is on record?
A: inconclusive: 13.8 µM [activator, single point]

Q: With `S=C=NCCc1ccccc1` as the compound, how does the Potency read?
A: inconclusive: 55.1 µM [activator, single point]

Q: Which Potency does the source give for `CCCCCCCCCCn1cc[n+](C)c1` here?
A: inconclusive: 55.2 µM [activator, single point] and inconclusive: 50.3 µM [activator, single point] and inconclusive: 43.8 µM [activator, partial curve, poor fit]

Q: For `CCC[CH2][Sn]([Cl])([CH2]CCC)[CH2]CCC`, which Potency is on record?
A: active: 1.38 µM and active: 692 nM

Q: Which Potency does the source give for `O=S1OC[C@@H]2[C@H](CO1)[C@]1(Cl)C(Cl)=C(Cl)[C@@]2(Cl)C1(Cl)Cl` (some centres undefined) here?
A: inconclusive: 54.9 µM [activator, single point]
